# Results: publication PMC8166750 (The Journal of Biological Chemistry, 2021)
# Legend:
# zfP2X4^E121A = target: T1, zfP2X4^E121A (Danio rerio, UniProt F8W463, E121A); assay: cell-based
# T1 sequence (F8W463 1-389 E121A): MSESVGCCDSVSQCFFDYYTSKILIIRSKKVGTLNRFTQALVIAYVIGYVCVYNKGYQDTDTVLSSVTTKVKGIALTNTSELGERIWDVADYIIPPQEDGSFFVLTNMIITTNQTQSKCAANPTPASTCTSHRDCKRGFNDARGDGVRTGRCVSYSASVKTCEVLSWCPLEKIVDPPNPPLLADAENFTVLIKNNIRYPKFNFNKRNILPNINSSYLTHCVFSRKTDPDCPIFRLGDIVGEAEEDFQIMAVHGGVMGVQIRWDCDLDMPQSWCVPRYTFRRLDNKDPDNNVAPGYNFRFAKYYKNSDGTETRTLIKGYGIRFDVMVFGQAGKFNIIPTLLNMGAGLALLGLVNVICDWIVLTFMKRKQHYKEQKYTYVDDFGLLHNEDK
# hP2X7^WT = target: T2, hP2X7^WT (Homo sapiens, UniProt Q99572); assay: ATP concentration-response, perforated patch clamp in HEK293 cells; type: cell-based
# T2 sequence (Q99572 1-595): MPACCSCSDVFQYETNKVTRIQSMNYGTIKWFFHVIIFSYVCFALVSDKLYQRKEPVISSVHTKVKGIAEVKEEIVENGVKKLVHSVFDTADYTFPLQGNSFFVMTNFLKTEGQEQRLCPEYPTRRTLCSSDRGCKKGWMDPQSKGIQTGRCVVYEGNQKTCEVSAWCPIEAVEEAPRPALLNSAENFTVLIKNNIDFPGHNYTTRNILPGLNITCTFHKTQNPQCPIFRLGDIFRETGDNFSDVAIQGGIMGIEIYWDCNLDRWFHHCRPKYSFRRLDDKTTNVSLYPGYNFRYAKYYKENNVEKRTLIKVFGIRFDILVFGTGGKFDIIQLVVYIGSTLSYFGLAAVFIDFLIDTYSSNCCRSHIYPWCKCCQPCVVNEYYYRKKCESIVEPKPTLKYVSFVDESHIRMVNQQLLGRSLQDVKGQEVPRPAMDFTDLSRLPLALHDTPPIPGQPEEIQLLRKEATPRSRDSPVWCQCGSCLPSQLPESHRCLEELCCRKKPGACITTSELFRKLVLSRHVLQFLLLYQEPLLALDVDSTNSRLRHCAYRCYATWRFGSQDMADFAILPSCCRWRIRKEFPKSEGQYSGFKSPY
smiles,measurement,setting,value
Nc1ncnc2c1ncn2[C@@H]1O[C@H](COP(=O)(O)OP(=O)(O)OP(=O)(O)O)[C@@H](O)[C@H]1O [ATP],EC50,zfP2X4^E121A,89.6 ± 18.1 µM
same,EC50,hP2X7^WT,497 ± 44.2 µM
same,nH (Hill coefficient) of ATP,hP2X7^WT; hP2X7^WT,1.71 ± 0.19
